# Measured values reported in the supplement of paper PMC8728848.
# The other results are listed elsewhere or left out.
# Legend:
# Assay in all cases: glycan array binding signal (z-score within array); higher = stronger binding
# Conditions in all cases: glycan notation: IUPAC condensed, linker removed
# [1] = target: Neu5Ac(a2-3)Gal(b1-3)GlcNAc
# How it was run: (§1)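 Arrays were curated from the Consortium for Functional Glycomics database, 3228 in total, and kept only where the protein sequence was available. Binding is expressed as a within-array Z-score. This score was averaged across arrays of the same protein sequence at different concentrations or buffers and across linkers, and negative values can be read as non-binding.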
# [2] = target: Neu5Ac(a2-3)Gal(b1-3)[Fuc(a1-4)]GlcNAc
# How it was run: as §1
# [3] = target: Neu5Ac(a2-3)Gal(b1-3)[Neu5Ac(a2-3)Gal(b1-4)]GlcNAc
# How it was run: as §1
# [4] = target: Neu5Ac(a2-3)Gal(b1-3)[Neu5Ac(a2-6)]GalNAc
# How it was run: as §1
# [5] = target: Neu5Ac(a2-3)Gal(b1-4)Glc
# How it was run: as §1
# [6] = target: Neu5Ac(a2-3)Gal(b1-4)GlcNAc
# How it was run: as §1
# [7] = target: Neu5Ac(a2-3)Gal(b1-4)GlcNAc(b1-3)Gal(b1-4)GlcNAc
# How it was run: as §1
# [8] = target: Neu5Ac(a2-3)Gal(b1-4)GlcNAc(b1-3)Gal(b1-4)GlcNAc(b1-3)Gal(b1-4)GlcNAc
# How it was run: as §1
# [9] = target: Neu5Ac(a2-3)Gal(b1-4)GlcNAc6S
# How it was run: as §1
# [10] = target: Neu5Ac(a2-3)Gal(b1-4)[Fuc(a1-3)]GlcNAc
# How it was run: as §1
# [11] = target: Neu5Ac(a2-3)Gal(b1-4)[Fuc(a1-3)]GlcNAc(b1-3)Gal
# How it was run: as §1
# [12] = target: Neu5Ac(a2-3)Gal(b1-4)[Fuc(a1-3)]GlcNAc(b1-3)Gal(b1-4)GlcNAc
# How it was run: as §1
# [13] = target: Neu5Ac(a2-3)Gal(b1-4)[Fuc(a1-3)]GlcNAc(b1-3)Gal(b1-4)[Fuc(a1-3)]GlcNAc(b1-3)Gal(b1-4)[Fuc(a1-3)]GlcNAc
# How it was run: as §1
# [14] = target: Neu5Ac(a2-3)Gal(b1-4)[Fuc(a1-3)]GlcNAc6S
# How it was run: as §1
# [15] = target: Neu5Ac(a2-3)Gal6S(b1-4)GlcNAc
# How it was run: as §1
# [16] = target: Neu5Ac(a2-3)GalNAc
# How it was run: as §1
# [17] = target: Neu5Ac(a2-3)[GalNAc(b1-4)]Gal(b1-4)Glc
# How it was run: as §1
# [18] = target: Neu5Ac(a2-3)[GalNAc(b1-4)]Gal(b1-4)GlcNAc
# How it was run: as §1
# [19] = target: Neu5Ac(a2-3)[Neu5Ac(a2-6)]GalNAc
# How it was run: as §1
# [20] = target: Neu5Ac(a2-6)Gal
# How it was run: as §1
# [21] = target: Neu5Ac(a2-6)Gal(b1-4)Glc
# How it was run: as §1
# [22] = target: Neu5Ac(a2-6)Gal(b1-4)GlcNAc
# How it was run: as §1
# [23] = target: Neu5Ac(a2-6)Gal(b1-4)GlcNAc(b1-3)Gal(b1-4)GlcNAc
# How it was run: as §1
# [24] = target: Neu5Ac(a2-6)Gal(b1-4)GlcNAc(b1-3)Gal(b1-4)[Fuc(a1-3)]GlcNAc(b1-3)Gal(b1-4)[Fuc(a1-3)]GlcNAc
# How it was run: as §1
# [25] = target: Neu5Ac(a2-6)Gal(b1-4)GlcNAc6S
# How it was run: as §1
# [26] = target: Neu5Ac(a2-6)GalNAc
# How it was run: as §1
# [27] = target: Neu5Ac(a2-8)Neu5Ac
# How it was run: as §1
# [28] = target: Neu5Ac(a2-8)Neu5Ac(a2-3)Gal(b1-4)Glc
# How it was run: as §1
# [29] = target: Neu5Ac(a2-8)Neu5Ac(a2-3)[GalNAc(b1-4)]Gal(b1-4)Glc
# How it was run: as §1
# [30] = target: Neu5Ac(a2-8)Neu5Ac(a2-8)Neu5Ac
# How it was run: as §1
# [31] = target: Neu5Ac(a2-8)Neu5Ac(a2-8)Neu5Ac(a2-3)Gal(b1-4)Glc
# How it was run: as §1
# [32] = target: Neu5Ac(a2-8)Neu5Ac(a2-8)Neu5Ac(a2-3)[GalNAc(b1-4)]Gal(b1-4)Glc
# How it was run: as §1
# [33] = target: Neu5Ac(b1-6)GalNAc
# How it was run: as §1
# [34] = target: Neu5Ac(b2-6)Gal(b1-4)GlcNAc
# How it was run: as §1
# [35] = target: Neu5Ac9Ac(a2-6)Gal(b1-4)GlcNAc
# How it was run: as §1
# [36] = target: Neu5Gc(a2-3)Gal(b1-3)GlcNAc
# How it was run: as §1
# [37] = target: Neu5Gc(a2-3)Gal(b1-3)[Fuc(a1-4)]GlcNAc
# How it was run: as §1
# [38] = target: Neu5Gc(a2-3)Gal(b1-4)Glc
# How it was run: as §1
# [39] = target: Neu5Gc(a2-3)Gal(b1-4)GlcNAc
# How it was run: as §1
# [40] = target: Neu5Gc(a2-3)Gal(b1-4)[Fuc(a1-3)]GlcNAc
# How it was run: as §1
# [41] = target: Neu5Gc(a2-6)Gal(b1-4)GlcNAc
# How it was run: as §1
# [42] = target: Neu5Gc(a2-6)GalNAc
# How it was run: as §1
binder,measurement,setting,value
"IRP60A (Homo sapiens), Q9UGN4 (protein) MWLPWALLLLWVPGCFALSKCRTVAGPVGGSLSVQCPYEKEHRTLNKYWCRPPQIFLCDKIVETKGSAGKRNGRVSIRDSPANLSFTVTLENLTEEDAGTYWCGVDTPWLRDFHDPVVEVEVSVFPASTSMTPASITAAKTSTITTAFPPVSSTTLFAVGATHSASIQEETEEVVNSQLPLLLSLLALLLLLLVGASLLAWRMFQKWIKAGDHSELSQNPKQAATQSELHYANLELLMWPLQEKPAPPREVEVEYSTVASPREELHYASVVFDSNTNRIAAQRPREEEPDSDYSVIRKT",glycan array binding signal (z-score),[1],-0.223
same,glycan array binding signal (z-score),[2],-0.437
same,glycan array binding signal (z-score),[3],-0.378
same,glycan array binding signal (z-score),[4],-0.405
same,glycan array binding signal (z-score),[5],-0.178
same,glycan array binding signal (z-score),[6],-0.225
same,glycan array binding signal (z-score),[7],-0.284
same,glycan array binding signal (z-score),[8],0.667
same,glycan array binding signal (z-score),[9],-0.381
same,glycan array binding signal (z-score),[10],-0.337
same,glycan array binding signal (z-score),[11],-0.39
same,glycan array binding signal (z-score),[12],-0.185
same,glycan array binding signal (z-score),[13],3.02
same,glycan array binding signal (z-score),[14],1.71
same,glycan array binding signal (z-score),[15],-0.213
same,glycan array binding signal (z-score),[16],-0.3
same,glycan array binding signal (z-score),[17],-0.369
same,glycan array binding signal (z-score),[18],-0.286
same,glycan array binding signal (z-score),[19],-0.437
same,glycan array binding signal (z-score),[20],-0.171
same,glycan array binding signal (z-score),[21],1.66
same,glycan array binding signal (z-score),[22],-0.325
same,glycan array binding signal (z-score),[23],-0.38
same,glycan array binding signal (z-score),[24],-0.335
same,glycan array binding signal (z-score),[25],-0.334
same,glycan array binding signal (z-score),[26],-0.309
same,glycan array binding signal (z-score),[27],5.86
same,glycan array binding signal (z-score),[28],-0.164
same,glycan array binding signal (z-score),[29],-0.404
same,glycan array binding signal (z-score),[30],-0.361
same,glycan array binding signal (z-score),[31],-0.304
same,glycan array binding signal (z-score),[32],-0.444
same,glycan array binding signal (z-score),[33],-0.175
same,glycan array binding signal (z-score),[34],-0.389
same,glycan array binding signal (z-score),[35],-0.342
same,glycan array binding signal (z-score),[36],-0.502
same,glycan array binding signal (z-score),[37],-0.373
same,glycan array binding signal (z-score),[38],-0.333
same,glycan array binding signal (z-score),[39],-0.407
same,glycan array binding signal (z-score),[40],-0.27
same,glycan array binding signal (z-score),[41],-0.361
same,glycan array binding signal (z-score),[42],-0.365
